Source: article doi:10.1101/148981 (bioRxiv, 2017)

Biological target: the molecule itself
Test: negative-stain EM

B1: recombinant CaMKIIα holoenzyme (enzyme)
chain: not shown
  stoichiometry N: 12
